The source of these data is patent publication US20250136663A1 (IMMUNITYBIO, published 2025).

The target of test [1] is T1, TGF-β1 (BioLegend) (UniProt P01137 partial chain). Nature of the test: ELISA: HCW molecule captured on an anti-TF IgG1-coated plate, TGF-β1 titrated, detected with biotinylated antibody (BAF240), HRP-SA and ABTS, OD405. The EC50 is the concentration of titrated TGF-β1. The table prints no unit; pM is taken from the x axis. The protocol:
TGFRt15-TGFRs (HCW9218) (10 pg/mL), HCW9228 (10 pg/mL), and TGFR*t15-TGFR*s (HCW9238) (10 pg/mL) were added to a 96-well plate coated with anti-TF IgG1 and incubated at room temperature (RT). The plates were washed and blocked with a blocking buffer of 1% BSA in PBS. Then, the plates were washed, TGF-β1 (BioLegend) titrated down from 4000 pM to 31 pM was added to the plates and the plates were incubated at RT. Then, the plates were washed, 200 ng/mL of biotinylated-anti-TGFβRI antibody (BAF240, R&D Systems) was added to the wells and the plates were incubated at RT. Next the plates were washed, and 0.2 pg/mL of HRP-SA (Jackson ImmunoResearch) was added to each well and incubated at RT, followed by incubation with ABTS at RT. Absorbance at 405 nm was read.

In test [2] the target is T1, TGF-β1 (BioLegend). Nature of the test: cell-based or functional assay.
A further test addresses T2, LAP (R&D Systems) (UniProt P01137 partial chain).
T2 construct: domain: LAP
The experiment in a line: ELISA: HCW molecule captured on an anti-TF IgG1-coated plate, LAP titrated, detected with biotinylated anti-LAP antibody (BAM2462), HRP-SA and ABTS, OD405. The EC50 is the concentration of titrated LAP. The table prints no unit; pM is taken from the x axis. As for the experimental part: TGFRt15-TGFRs (HCW9218) (10 μg/mL), HCW9228 (10 μg/mL), and TGFR*t15-TGFR*s (HCW9238) (10 μg/mL) were added to a 96-well plate coated with anti-TF IgG1 and incubated at room temperature (RT). The plates were washed and blocked with a blocking buffer of 1% BSA in PBS. Then, the plates were washed, LAP (R&D Systems) titrated down from 4000 pM to 31 pM, was added to the plates and the plates were incubated at RT. Then, the plates were washed, 100 ng/mL of biotinylated-anti-LAP antibody (BAM2462, R&D Systems) was added to the wells and the plates were incubated at RT. Next the plates were washed, and 0.2 μg/mL of HRP-SA (Jackson ImmunoResearch) was added to each well and incubated at RT, followed by incubation with ABTS at RT. Absorbance at 405 nm was read.

T1 sequence (P01137 279-390 limits assumed): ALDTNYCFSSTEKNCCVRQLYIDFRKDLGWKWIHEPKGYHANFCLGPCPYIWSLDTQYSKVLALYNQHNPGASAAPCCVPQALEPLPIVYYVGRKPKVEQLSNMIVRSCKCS
Chain of LAP (R&D Systems) (P01137 30-278 limits assumed): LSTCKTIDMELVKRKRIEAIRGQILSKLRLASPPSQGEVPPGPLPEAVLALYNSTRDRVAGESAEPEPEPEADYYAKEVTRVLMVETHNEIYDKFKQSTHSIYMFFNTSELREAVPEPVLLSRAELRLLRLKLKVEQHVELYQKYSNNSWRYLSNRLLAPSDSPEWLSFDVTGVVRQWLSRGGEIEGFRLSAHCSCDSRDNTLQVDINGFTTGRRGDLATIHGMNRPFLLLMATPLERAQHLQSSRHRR

B1: TGFRt15-TGFRs (HCW9218) (other)
chain 1: IPPHVQKSVNNDMIVTDNNGAVKFPQLCKFCDVRFSTCDNQKSCMSNCSITSICEKPQEVCVAVWRKNDENITLETVCHDPKLPYHDFILEDAASPKCIMKEKKKPGETFFMCSCSSDECNDNIIFSEEYNTSNPDGGGGSGGGGSGGGGSIPPHVQKSVNNDMIVTDNNGAVKFPQLCKFCDVRFSTCDNQKSCMSNCSITSICEKPQEVCVAVWRKNDENITLETVCHDPKLPYHDFILEDAASPKCIMKEKKKPGETFFMCSCSSDECNDNIIFSEEYNTSNPDSGTTNTVAAYNLTWKSTNFKTILEWEPKPVNQVYTVQISTKSGDWKSKCFYTTDTECDLTDEIVKDVKQTYLARVFSYPAGNVESTGSAGEPLYENSPEFTPYLETNLGQPTIQSFEQVGTKVNVTVEDERTLVRRNNTFLSLRDVFGKDLIYTLYYWKSSSSGKKTAKTNTNEFLIDVDKGENYCFSVQAVIPSRTVNRKSTDSPVECMGQEKGEFRE[not shown - about 120 residues]
chain 2: IPPHVQKSVNNDMIVTDNNGAVKFPQLCKFCDVRFSTCDNQKSCMSNCSITSICEKPQEVCVAVWRKNDENITLETVCHDPKLPYHDFILEDAASPKCIMKEKKKPGETFFMCSCSSDECNDNIIFSEEYNTSNPDGGGGSGGGGSGGGGSIPPHVQKSVNNDMIVTDNNGAVKFPQLCKFCDVRFSTCDNQKSCMSNCSITSICEKPQEVCVAVWRKNDENITLETVCHDPKLPYHDFILEDAASPKCIMKEKKKPGETFFMCSCSSDECNDNIIFSEEYNTSNPDITCPPPMSVEHADIWVKSYSLYSRERYICNSGFKRKAGTSSLTECVLNKATNVAHWTTPSLKCIR
notes: also called TGFβR/TF/IL-15:TGFβR/IL-15RαSu protein complex
For the molecule B1, the 50% effective concentration (EC50) with TGF-β1 (BioLegend) [1] came out at 0.857 nM; in the test with LAP (R&D Systems), 0.431 nM. Besides, in the test with TGF-β1 (BioLegend) [2], the “IC50 (read off the curve)” value was approximately 0.09 nM.
